In patent publication US20250223314A1 (UCL BUSINESS, published 2025):

Biological target: Tocilizumab (IgG1)
Assay: SPR (Biacore), tocilizumab immobilised via EDC/NHS on CM5 chip, receptor as analyte

Tocilizumab (IgG1), sequence (chain, as listed by the source, chain 1 of 2): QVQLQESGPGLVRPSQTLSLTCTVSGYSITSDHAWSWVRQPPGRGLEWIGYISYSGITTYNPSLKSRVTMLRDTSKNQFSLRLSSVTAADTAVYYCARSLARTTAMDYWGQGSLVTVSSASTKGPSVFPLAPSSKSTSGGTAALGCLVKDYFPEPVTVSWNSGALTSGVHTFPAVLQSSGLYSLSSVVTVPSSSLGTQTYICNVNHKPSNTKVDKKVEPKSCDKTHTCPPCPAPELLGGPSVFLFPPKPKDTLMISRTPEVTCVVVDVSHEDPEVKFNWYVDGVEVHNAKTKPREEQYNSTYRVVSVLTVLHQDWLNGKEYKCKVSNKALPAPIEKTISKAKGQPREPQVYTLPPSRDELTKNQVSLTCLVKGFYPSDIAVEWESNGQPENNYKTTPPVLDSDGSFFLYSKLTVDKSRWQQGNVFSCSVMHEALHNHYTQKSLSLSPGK
Tocilizumab (IgG1), sequence (chain, as listed by the source, chain 2 of 2): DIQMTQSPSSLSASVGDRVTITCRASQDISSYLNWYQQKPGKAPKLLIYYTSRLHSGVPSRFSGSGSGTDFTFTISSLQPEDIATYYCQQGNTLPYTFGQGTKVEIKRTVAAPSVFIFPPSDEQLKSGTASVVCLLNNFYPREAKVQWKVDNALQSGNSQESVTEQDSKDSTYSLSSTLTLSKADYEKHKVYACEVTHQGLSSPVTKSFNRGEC

Kd: 56 nM
B1: single-domain WT FcγRIIIa (receptor)
chain: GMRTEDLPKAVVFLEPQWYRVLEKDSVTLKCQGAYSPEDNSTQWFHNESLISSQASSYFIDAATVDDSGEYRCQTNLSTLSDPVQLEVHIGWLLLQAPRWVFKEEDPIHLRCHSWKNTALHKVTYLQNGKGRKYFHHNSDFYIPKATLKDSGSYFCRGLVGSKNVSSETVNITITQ
